Laboratory results taken from the supplement of paper PMC6206098.
± gives the uncertainty stated by the source. Shown are siRNA guide strands that differ only in the seed, positions 2 to 7.

Key:
HeyA8 = test: cell viability relative to lipid-only control; higher = less toxic; conditions: concentration: 10 nM; 96 h; Homo sapiens
H460 = test: as above; conditions: concentration: 10 nM; 96 h; Homo sapiens
M565 = test: as above; conditions: concentration: 10 nM; 96 h; Mus musculus
3LL = test: cell viability relative to siNT1 control; HeyA8 human ovarian and H460 human lung cancer; M565 mouse liver and 3LL mouse lung cancer; siNT1 is a non-toxic control siRNA; higher = less toxic; conditions: concentration: 10 nM; 96 h; Mus musculus
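Wherever cell viability relative to lipid-only control is given: reverse lipid transfection in 384-well plates, in triplicate, of duplexes on a non-toxic 19mer backbone with passenger strand 2′-O-methylated at positions 1 and 2, luminescence viability read-out.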
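Wherever cell viability relative to siNT1 control is given: Luminescence-based viability of cells reverse transfected in 384-well plates with lipid-complexed siRNAs built on a non-toxic 19mer backbone whose passenger strand carries 2′-O-methyl groups at positions 1 and 2, triplicates.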

| Sequence | cell viability (HeyA8) | cell viability (H460) | cell viability (M565) | cell viability (3LL) |
| --- | --- | --- | --- | --- |
| UGCUAGUACAUGUAAACCAAA | 24.8 ± 3.1% | 20.7 ± 0.73% | 40 ± 2.7% | 44.3 ± 5.3% |
| UGCUAUAACAUGUAAACCAAA | 68.9 ± 11% | 61.6 ± 7.1% | 72.2 ± 1.3% | 83.3 ± 10% |
| UGCUAUCACAUGUAAACCAAA | 7.87 ± 3.1% | 30.3 ± 1.5% | 64.8 ± 5% | 32.9 ± 2.5% |
| UGCUAUGACAUGUAAACCAAA | 65.4 ± 6.1% | 58.9 ± 1.1% | 110 ± 1.6% | 89.6 ± 16% |
| UGCUAUUACAUGUAAACCAAA | 49.9 ± 4.6% | 50 ± 2.2% | 85 ± 4.4% | 79.1 ± 10% |
| UGCUCAAACAUGUAAACCAAA | 68.6 ± 6.8% | 70.2 ± 15% | 80.9 ± 7.6% | 80.5 ± 8.5% |
| UGCUCACACAUGUAAACCAAA | 60.1 ± 1% | 65.5 ± 8.4% | 84.6 ± 1.6% | 56.1 ± 8.9% |
| UGCUCAGACAUGUAAACCAAA | 66.8 ± 5.4% | 86.2 ± 16% | 87.2 ± 7.2% | 73.5 ± 11% |
| UGCUCAUACAUGUAAACCAAA | 73.4 ± 3.4% | 73.6 ± 19% | 81.6 ± 6.6% | 82.1 ± 14% |
| UGCUCCAACAUGUAAACCAAA | 32.3 ± 3.8% | 44.2 ± 4.9% | 48.5 ± 3.4% | 56.5 ± 11% |
| UGCUCCCACAUGUAAACCAAA | 21.2 ± 1.7% | 22.9 ± 2.2% | 28.3 ± 8.4% | 7.69 ± 0.87% |
| UGCUCCGACAUGUAAACCAAA | 34.5 ± 2.7% | 37.7 ± 4.7% | 66.9 ± 1.7% | 51.1 ± 9.6% |
| UGCUCCUACAUGUAAACCAAA | 29.5 ± 3.8% | 24.9 ± 0.81% | 36.1 ± 6.8% | 9.2 ± 0.72% |
| UGCUCGAACAUGUAAACCAAA | 65.6 ± 8.4% | 57 ± 0.9% | 73.5 ± 7.5% | 81.9 ± 14% |
| UGCUCGCACAUGUAAACCAAA | 32.6 ± 4.2% | 42.6 ± 4.5% | 52.8 ± 4.9% | 57.3 ± 5.7% |
| UGCUCGGACAUGUAAACCAAA | 28.3 ± 3.5% | 58.3 ± 1.8% | 50.1 ± 0.79% | 84.2 ± 7.1% |
| UGCUCGUACAUGUAAACCAAA | 26.4 ± 2.7% | 53.6 ± 2.6% | 50.9 ± 1.3% | 54.4 ± 1.7% |
| UGCUCUAACAUGUAAACCAAA | 79.4 ± 6.4% | 85.2 ± 18% | 67.3 ± 5% | 82.4 ± 14% |
| UGCUCUCACAUGUAAACCAAA | 71.5 ± 2.1% | 47.1 ± 5.7% | 31.9 ± 8.5% | 15.7 ± 6.8% |
| UGCUCUGACAUGUAAACCAAA | 59.7 ± 4.4% | 70.4 ± 2.5% | 21.9 ± 5.4% | 53.2 ± 5.8% |

| Sequence | cell viability (HeyA8) | cell viability (H460) | cell viability (M565) | cell viability (3LL) |
| --- | --- | --- | --- | --- |
| UGCUCUUACAUGUAAACCAAA | 68.3 ± 5.1% | 81.5 ± 10% | 49.3 ± 7.5% | 58 ± 6.9% |
| UGCUGAAACAUGUAAACCAAA | 59.3 ± 5.7% | 73.1 ± 8.8% | 33.5 ± 2.9% | 79 ± 1.5% |
| UGCUGACACAUGUAAACCAAA | 24.8 ± 2.4% | 39.7 ± 2.6% | 19.5 ± 2.7% | 9.09 ± 5.3% |
| UGCUGAGACAUGUAAACCAAA | 35.2 ± 1.7% | 55.9 ± 5.1% | 17.2 ± 7.5% | 50.9 ± 1.6% |
| UGCUGAUACAUGUAAACCAAA | 47.7 ± 5% | 69.2 ± 11% | 8.4 ± 1.4% | 13.9 ± 6.5% |
| UGCUGCAACAUGUAAACCAAA | 30.8 ± 3.3% | 57.6 ± 8.5% | 6.09 ± 2.9% | 34.3 ± 8.8% |
| UGCUGCCACAUGUAAACCAAA | 16.1 ± 2% | 14.6 ± 1.6% | 19.4 ± 11% | 9.04 ± 2.6% |
| UGCUGCGACAUGUAAACCAAA | 32.2 ± 3.5% | 67.4 ± 12% | 10.5 ± 1.9% | 50.4 ± 18% |
| UGCUGCUACAUGUAAACCAAA | 7.21 ± 0.59% | 41.9 ± 0.99% | 4.09 ± 6.2% | 33.5 ± 2.3% |
| UGCUGGAACAUGUAAACCAAA | 29.9 ± 3.2% | 62.2 ± 11% | 15 ± 1% | 26.2 ± 2.2% |
| UGCUGGCACAUGUAAACCAAA | 28 ± 5.4% | 25.5 ± 3% | 29 ± 7% | 20.8 ± 6.5% |
| UGCUGGGACAUGUAAACCAAA | 3.77 ± 0.95% | 12.1 ± 1.2% | 6.46 ± 6.5% | 9.51 ± 3.1% |
| UGCUGGUACAUGUAAACCAAA | 37.3 ± 2% | 74 ± 14% | 37.5 ± 7.8% | 36.3 ± 14% |
| UGCUGUAACAUGUAAACCAAA | 70.2 ± 7.3% | 94.7 ± 25% | 17.8 ± 2.2% | 75.9 ± 11% |
| UGCUGUCACAUGUAAACCAAA | 17.1 ± 2.3% | 62.3 ± 4.4% | 23.2 ± 7.3% | 18.6 ± 4.2% |
| UGCUGUGACAUGUAAACCAAA | 58.1 ± 3.7% | 78.9 ± 3.8% | 6.93 ± 3.7% | 7.85 ± 0.97% |
| UGCUGUUACAUGUAAACCAAA | 66.1 ± 9% | 91.9 ± 13% | 18.3 ± 6.8% | 50.5 ± 3.8% |
| UGCUUAAACAUGUAAACCAAA | 81.6 ± 6.3% | 71.9 ± 9.5% | 88 ± 1.7% | 83.4 ± 10% |
| UGCUUACACAUGUAAACCAAA | 20.4 ± 1.1% | 40.4 ± 1.8% | 94.8 ± 4.8% | 77.3 ± 4.3% |
| UGCUUAGACAUGUAAACCAAA | 26.9 ± 2.8% | 92.8 ± 19% | 54.6 ± 1.7% | 66.1 ± 4.8% |

| Sequence | cell viability (HeyA8) | cell viability (H460) | cell viability (M565) | cell viability (3LL) |
| --- | --- | --- | --- | --- |
| UGCUUAUACAUGUAAACCAAA | 74.7 ± 4.4% | 84.6 ± 14% | 72.4 ± 7.8% | 92.6 ± 12% |
| UGCUUCAACAUGUAAACCAAA | 27 ± 3.3% | 80.7 ± 22% | 55.4 ± 7.1% | 72.6 ± 7.2% |
| UGCUUCCACAUGUAAACCAAA | 19.3 ± 2.2% | 47.8 ± 4% | 21.2 ± 9.2% | 57.8 ± 9% |
| UGCUUCGACAUGUAAACCAAA | 36 ± 3.6% | 69.7 ± 6% | 44.5 ± 1.4% | 59.9 ± 12% |
| UGCUUCUACAUGUAAACCAAA | 23.7 ± 0.74% | 81.7 ± 17% | 32.8 ± 5% | 56.6 ± 12% |
| UGCUUGAACAUGUAAACCAAA | 51.8 ± 3.3% | 61.1 ± 8.9% | 73 ± 3% | 82.4 ± 12% |
| UGCUUGCACAUGUAAACCAAA | 25.6 ± 1.1% | 44.9 ± 3.4% | 35.3 ± 17% | 23.4 ± 5.9% |
| UGCUUGGACAUGUAAACCAAA | 25.3 ± 2.1% | 36.5 ± 5.7% | 21 ± 6.3% | 42.4 ± 4.6% |
| UGCUUGUACAUGUAAACCAAA | 11.9 ± 0.54% | 57.4 ± 9.2% | 29.2 ± 6.6% | 52.8 ± 5.8% |
| UGCUUUAACAUGUAAACCAAA | 65.7 ± 4.6% | 85.8 ± 20% | 62.5 ± 8.4% | 77.4 ± 15% |
| UGCUUUCACAUGUAAACCAAA | 13.1 ± 1.5% | 45.3 ± 13% | 73.1 ± 11% | 24.7 ± 4.4% |
| UGCUUUGACAUGUAAACCAAA | 40.3 ± 9.1% | 66.1 ± 5.7% | 42.8 ± 2.5% | 53.6 ± 9.1% |
| UGCUUUUACAUGUAAACCAAA | 11.9 ± 2.2% | 41 ± 1.8% | 58.4 ± 7.3% | 47.8 ± 5.2% |
| UGGAAAAACAUGUAAACCAAA | 98.8 ± 6.7% | 67.9 ± 9.9% | 87.5 ± 17% | 101 ± 16% |
| UGGAAACACAUGUAAACCAAA | 39.7 ± 3.8% | 59.5 ± 5.3% | 51.4 ± 13% | 71.6 ± 7.9% |
| UGGAAAGACAUGUAAACCAAA | 67.1 ± 21% | 79.6 ± 20% | 38.9 ± 3.8% | 90.2 ± 6.9% |
| UGGAAAUACAUGUAAACCAAA | 56.5 ± 3.9% | 61.8 ± 7.6% | 80.1 ± 11% | 92 ± 16% |
| UGGAACAACAUGUAAACCAAA | 79.9 ± 3.5% | 77.2 ± 11% | 17.1 ± 1.2% | 78 ± 8.8% |
| UGGAACCACAUGUAAACCAAA | 32 ± 1.6% | 44.2 ± 6.1% | 9.49 ± 2.4% | 50.4 ± 4.3% |
